Source: the antibiotic and cytotoxicity screens of Wong et al. (2023)
The list shows a part of the results.

How the values were obtained:
HSkMC = human skeletal muscle cells; assay: cytotoxicity call (relative viability < 0.9); settings: 10 µM
HepG2 = assay: cytotoxicity call (relative viability < 0.9); settings: 10 µM
S. aureus RN4220 = assay: growth inhibition call (relative growth <= 0.2); settings: 50 µM

SMILES	cytotoxicity call (HSkMC)	cytotoxicity call (HepG2)	growth inhibition call (S. aureus RN4220)
Cc1nnc(N2CCC[C@]3(CNCCO3)C2)o1	inactive	inactive	inactive
N=C(N)NOCCC(N)C(=O)O (stereo not given)	inactive	inactive	inactive
CN1CCN(C(=O)CN=[N+]=[N-])CC1	inactive	inactive	inactive
COC(=O)C[C@H]1CC[C@@H]2NC[C@H](O)COC[C@H]2O1	inactive	inactive	inactive
COC(=O)[C@@]1(Cc2ccccc2CN=[N+]=[N-])N=C(c2ccc(OCCCO)cc2)O[C@H]1c1ccccc1N=[N+]=[N-]	inactive	inactive	inactive
Cl.OC1CCCCC1N1CCC(c2ccccc2)CC1 (stereo not given)	inactive	inactive	inactive
O=C([O-])Cc1ccccc1.[Na+]	inactive	inactive	inactive
CCC(=O)CCCCC[C@@H]1NC(=O)[C@H]2CCCCN2C(=O)[C@H]([C@H](C)CC)NC(=O)[C@H](Cc2cn(OC)c3ccccc23)NC1=O	active	active	inactive
CCn1cc2nc(N3CCNCC3)[nH]cc-2c1=O	inactive	inactive	inactive
CN1[C@@H](CO)[C@@H]2c3ccccc3NC[C@@H]21	inactive	inactive	inactive
CCCC(C)(COC(N)=O)COC(=O)NC(C)C (stereo not given)	inactive	inactive	inactive
O=C(O)CCCc1ccc(N(CCCl)CCCl)cc1	inactive	inactive	inactive
C[CH2][Hg][S]c1ccccc1C(=O)[O-].[Na+]	active	active	active
Cc1nc2c(=O)n(C)c(=O)nc-2n(C)n1	active	active	inactive
COc1cc2c3cc1Oc1c(OC)c(OC)cc4c1C(Cc1cccc(c1)Oc1ccc(c(O)c1)CC3N(C)CC2)N(C)CC4.Cl.Cl (stereo not given)	inactive	active	inactive
O=C(O)C[C@@H]1CC[C@H]2NC[C@H](O)COC[C@@H]2O1	inactive	inactive	inactive
CN1C[C@H]2CN[C@H]2C1	inactive	inactive	inactive
Br.CN1C2CC(OC(=O)C(CO)c3ccccc3)CC1C1OC12 (stereo not given)	inactive	inactive	inactive
NNc1ccn([C@H]2O[C@@H](CO)[C@@H](O)[C@@H]2O)c(=O)n1	inactive	inactive	inactive
COCCC(=O)N1C[C@H]2CCN[C@H]2C1	inactive	inactive	inactive
CC[C@@]1(O)C[C@H](O[C@H]2C[C@H](N(C)C)[C@H](O)[C@H](C)O2)c2c(cc3c(c2O)C(=O)c2c(O)ccc(O)c2C3=O)[C@H]1C(=O)OC	inactive	active	inactive
C[C@H]1CN([C@@H](C)CO)C(=O)c2c(c3ccccc3n2C)-c2ccccc2CO[C@@H]1CN(C)C(=O)Oc1ccccc1	inactive	inactive	inactive
CC12CCC3c4ccc(OC(=O)N(CCCl)CCCl)cc4CCC3C1CCC2O (stereo not given)	inactive	active	inactive
Nc1ccc(-c2ccc(N)cc2)cc1	inactive	inactive	inactive
COc1ccc(OC(=O)N(C)C[C@@H]2OCc3ccccc3-c3c(n(C)c4ccccc34)C(=O)N([C@@H](C)CO)C[C@H]2C)cc1	inactive	active	inactive
COCC(=O)N1C[C@@H]2c3ccccc3CN[C@@H]2C1	inactive	inactive	inactive
O=C(c1ccccc1)C12CN3CN(CN(C3)C1)C2	inactive	inactive	inactive

SMILES	cytotoxicity call (HSkMC)	cytotoxicity call (HepG2)	growth inhibition call (S. aureus RN4220)
NCCc1nc2ccccc2[nH]1	inactive	inactive	inactive
O=c1[nH]c2ccccc2n1CCCN1CCC(n2c(=O)[nH]c3cc(Cl)ccc32)CC1	inactive	inactive	inactive
Cc1ncc(CNC(=O)N(CCCl)[NH2+][O-])c(N)n1	inactive	inactive	inactive
O=[N+]([O-])c1c(NCCO)ccc2nonc12	inactive	inactive	inactive
COP(=S)(OC)Oc1ccc(Sc2ccc(OP(=S)(OC)OC)cc2)cc1	inactive	inactive	inactive
C=C(C)[C@@H]1CCC(C)=C[C@H]1c1c(O)cc(CCCCC)cc1O	active	inactive	active
OCCN1CC2(CCN(c3nccs3)C2)C1	inactive	inactive	inactive
C=C(C)[C@@H]1[C@H]2OC(=O)[C@H]1[C@]1(O)C[C@H]3O[C@]34C(=O)O[C@H]2[C@]14C	inactive	inactive	inactive
O=C1C=C2C(=CCO[C@@H]2O)O1	inactive	inactive	inactive
CNC(=O)[C@@H]1COC[C@@H]2CN(CC(C)C)C[C@@H]21	inactive	inactive	inactive
Nc1ccc(N2CCNCC2)cc1	inactive	inactive	inactive
Cc1ccc(C2(CN)CCCCC2)cc1	inactive	inactive	inactive
Cc1ncc(CNC(=O)N(CCCl)N=O)c(N)n1.Cl	inactive	inactive	inactive
O=C(NC(=O)c1ccccc1Cl)Nc1ccc(OC(F)(F)F)cc1	inactive	inactive	inactive
Cc1ccc(-c2nc3ccc(C)cn3c2CC(=O)N(C)C)cc1	inactive	inactive	inactive
N#[N+]CC(=O)CC[C@H](N)C(=O)O	inactive	inactive	inactive
C=C(C)[C@@H]1CCC(C)=C[C@H]1c1c(OC)cc(C)cc1OC	inactive	inactive	inactive
Nc1nc(N)nc(NC2CC2)n1	inactive	inactive	inactive
CC1C(=O)OC2CCN3CC=C(COC(=O)C(C)(O)C1(C)O)C23 (stereo not given)	inactive	inactive	inactive
Cc1cc(C(=O)N2CC[C@H]3[C@@H]2CCN3C)no1	inactive	inactive	inactive
N[C@H]1C[C@H]1c1ccccc1	inactive	inactive	inactive
CN(C)C(=O)[C@@]1(Cc2ccccc2CN=[N+]=[N-])N=C(c2ccc(OCCCO)cc2)O[C@H]1c1ccccc1N=[N+]=[N-]	inactive	active	inactive
CCOC(=O)C1C(C=C(C)C)C1(C)C (stereo not given)	inactive	inactive	inactive
Cc1cc[n+](C)cc1	inactive	inactive	inactive
CC(C)(C)c1ccc(O)cc1	–	–	inactive
O=C(NC(=O)c1c(F)cccc1F)Nc1ccc(Cl)cc1	inactive	inactive	inactive
CN1CC(CNC(=O)OCc2ccccc2)CC2c3cccc4c3c(cn4C)CC21 (stereo not given)	inactive	active	inactive

SMILES	cytotoxicity call (HSkMC)	cytotoxicity call (HepG2)	growth inhibition call (S. aureus RN4220)
CN1C(=O)/C(=C/c2cn(CC(=O)N3CCOCC3)c3ccccc23)C(=O)NC1=S	inactive	inactive	inactive
Cc1cc(O)ccc1Cl	inactive	active	inactive
N/N=C(/N)NO	inactive	inactive	inactive
CN[C@@H]1[C@@H](O)[C@@H](O[C@@H]2[C@H](O)[C@@H](O[C@H]3O[C@H]([C@@H](C)O)[C@@H](O)[C@H](O)[C@H]3N)[C@H](N)C[C@@H]2N)OC[C@]1(C)O	inactive	inactive	inactive
Br.CN1C2CC(OC(=O)C(CO)c3ccccc3)CC1C(O)C2 (racemic)	inactive	inactive	inactive
O=C(O)C=CCO	inactive	inactive	inactive
NCCNC[C@@H](N)CCCNC(N)=N[N+](=O)[O-].O=CC(F)(F)F	inactive	inactive	inactive
O=C(O)C(Cl)Cl	inactive	inactive	inactive
CC(=O)OC1CC2C(C)(C)C(=O)C=CC2(C)C2CCC3(C)C(=CC(=O)OC3c3ccoc3)C12C (stereo not given)	inactive	active	inactive
NCCCNCCSP(=O)(O)O	inactive	inactive	inactive
NCCc1ccc([N+](=O)[O-])cc1	inactive	inactive	inactive
CC(C)c1cccc2c1OCC[C@H](N)[C@@H]2O	inactive	inactive	inactive
C[C@]12CCC(=O)C[C@@H]1CC[C@@H]1[C@@H]2CC[C@]2(C)C(=O)CC[C@@H]12 [5alpha-ANDROSTAN-3,17-DIONE]	–	–	inactive
CCC(C)C1OC2(C=CC1C)CC1CC(CC=C(C)C(OC3CC(OC)C(OC4CC(OC)C(O)C(C)O4)C(C)O3)C(C)C=CC=C3COC4C(O)C(C)=CC(C(=O)O1)C34O)O2 (stereo not given) [ABAMECTIN (avermectin B1a shown)]	–	–	inactive
CC1(C)C(=O)C2OC2C2(C)C1CC(O)C1(C)C2CCC2(C)C(c3ccoc3)OC(=O)C3OC321 (stereo not drawn) [1,2alpha-EPOXYDEACETOXYDIHYDROGEDUNIN]	–	–	inactive
CCC(C)C1OC2(C=CC1C)CC1CC(CC=C(C)C(OC3CC(OC)C(OC4CC(OC)C(O)C(C)O4)C(C)O3)C(C)C=CC=C3COC4C(O)C(C)=CC(C(=O)O1)C34O)O2 (stereo not given) [ABAMECTIN (avermectin B1a shown) ]	inactive	active	–
COc1cccc2c1C(=O)c1c(O)c3c(c(O)c1C2=O)C[C@@](O)(C(=O)CO)C[C@@H]3O[C@H]1C[C@H](N2CCO[C@H](OC)C2)[C@H](O)[C@H](C)O1	active	active	active
CCCCCC1C(=O)OC(C)C(NC(=O)c2cccc(NC=O)c2O)C(=O)OC(C)C1OC(=O)CC(C)C (stereo not given) [ANTIMYCIN A (A1 shown) ]	inactive	active	–
C[C@]12CCC(=O)C[C@@H]1CC[C@@H]1[C@@H]2CC[C@]2(C)C(=O)CC[C@@H]12 [5alpha-ANDROSTAN-3,17-DIONE ]	inactive	inactive	–
N[C@H]1C[C@@H]1c1ccccc1	inactive	inactive	inactive
[N-]=[N+]=Nc1ccccc1C[C@@]1(C(=O)NCc2ccccc2)N=C(c2ccc(OCCCO)cc2)O[C@@H]1c1ccccc1N=[N+]=[N-]	inactive	inactive	inactive
CC1(C)C(=O)C2OC2C2(C)C1CC(O)C1(C)C2CCC2(C)C(c3ccoc3)OC(=O)C3OC321 (stereo not drawn) [1,2alpha-EPOXYDEACETOXYDIHYDROGEDUNIN ]	inactive	inactive	–
COC(=O)C[C@@H](CN)c1ccc(Cl)cc1	inactive	inactive	inactive
O=C1NCC2(CNC2)O1	inactive	inactive	inactive
Cl.NCC(=O)c1ccccc1	inactive	inactive	inactive
